# Measurements: PubChem BioAssay AID1671193 (National Center for Advancing Translational Sciences (NCATS), 2021)
# About 180 (0.12%) of roughly 150,000 compounds were called active. The shares of active, inactive and inconclusive entries below differ from those in the screen. Calls follow the shape of the dose curve; as a rule, active = well fitted cell-killing curve with a large enough effect; inconclusive = small, poorly fitted or top-dose-only effect, or effect the other way; inactive = flat fitted curve, though single readings scatter. Where the call is inconclusive, the potency comes from a doubtful curve fit.
# Test: GF-AFC viability counterscreen for inhibitors of alpha-synuclein gene (SNCA) expression; also: nearly all actives have a fitted effect of over 30% in size
# Settings: HEK-293-SNCA-luc viability, GF-AFC fluorescence, 24 h; series mostly up to 57.1 µM
# Outline: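 HEK-293-SNCA-luc cells (1500/well) plated 24 h, then exposed 24 h to a dilution series; GF-AFC added 30 min at 37C, fluorescence 405/540 nm; normalised to medium-only and DMSO wells, Hill fit.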
# Potency is read from the fitted curve at half-maximal effect; tags tell the direction and shape of the fitted curve.
row,SMILES,Potency
1,OC[C@H]1CCN(Cc2ccc(-c3cccc(Cl)c3Cl)o2)C[C@@H]1O,"inconclusive: 28.2 µM [cytotoxic, partial curve]"
2,COc1ccccc1Nc1c2c(nc3ccc(NC(=O)c4cccc(OC)c4OC)cc13)CCCC2,active: 15.8 µM
3,O=C(N[C@@H]1CCC[C@@H]1C(=O)NCCc1ccccc1)c1ccncc1,"inconclusive: 15.8 µM [cytotoxic, partial curve, poor fit]"
4,O=C(c1ccc(C(F)(F)F)cc1)N1CCC2(CC1)CC(c1cccc(C(F)(F)F)c1)=NO2,inactive
5,COc1cccc(-c2nc(SCC(=O)NCC3CCCO3)c(-c3ccc(F)cc3)[nH]2)c1 (stereo not drawn),"inconclusive: 39.8 µM [cytotoxic, single point]"
6,O=[S+]1([O-])NC2(CCN(Cc3ccccc3C(F)(F)F)C2)CNc2ccccc21 (stereo not drawn),inactive
7,O=C1CC2(CCN(C(=O)C3CCN(C(=O)c4ccccc4F)CC3)CC2)Oc2ccccc2N1,"inconclusive: 39.8 µM [rising, single point]"
8,Cc1cccc(N2CCN(C(=O)Cn3cnc4sc(C)c(S(=O)(=O)N5CCN(c6ncccn6)CC5)c4c3=O)CC2C)c1 (stereo not drawn),"inconclusive: 11.2 µM [cytotoxic, partial curve]"
9,Cn1ncc2c(C(=O)NCc3ccccn3)cc(-c3cccc(C(F)(F)F)c3)nc21,inactive
10,CS(=O)(=O)N1CCN(C(=O)CCC2CCN(c3cc(NC4CC4)ncn3)CC2)CC1,inactive
11,CN(Cc1cccc(C(F)(F)F)c1)C(=O)c1ccccc1Cl,inactive
12,CCc1cccc(NC(=O)Cn2cc(C(=O)c3ccncc3)c(=O)c3cc(C)c(C)cc32)c1,"inconclusive: 8.91 µM [cytotoxic, partial curve, poor fit]"
13,O=C(NCc1ccc(Cl)cc1)c1ccc2c(c1)NC(=O)C(CS(=O)(=O)Cc1ccccc1Cl)N2 (stereo not drawn),"inconclusive: 2.24 µM [rising, full curve, poor fit]"
14,CCC1CCCCN1C(=O)Cn1c(=O)n(CCCCCC(=O)NCc2ccc(F)cc2)c(=O)c2sccc21 (stereo not drawn),"inconclusive: 7.08 µM [cytotoxic, single point]"
15,O=C(Nc1cccnc1)[C@@H]1C[C@@H](c2ccc(F)cc2)N(CCOc2ccccc2)C1,"inconclusive: 50.1 µM [cytotoxic, single point]"
16,CCCCNC(=O)CC(c1cccc(OC)c1OC)c1c[nH]c2ccccc12 (stereo not drawn),inactive
17,CC(C)NC(=O)N(C1CCOCC1)C1CN(C(=O)c2ccco2)C1,"inconclusive: 39.8 µM [cytotoxic, single point]"
18,CCCS(=O)(=O)Nc1ccc(F)c(C(=O)c2c[nH]c3ncc(Cl)cc23)c1F,"inconclusive: 9.61 µM [cytotoxic, full curve]"
19,CCc1ccc(C2=CC(c3cccc(Br)c3)n3nnnc3N2)cc1 (stereo not drawn),"inconclusive: 28.2 µM [rising, partial curve]"

row,SMILES,Potency
1,CCCCCCc1cc2cc(-c3nnc(-c4ccc(C)cc4)o3)c(=O)oc2cc1O,"inconclusive: 0.891 µM [rising, full curve, poor fit]"
2,CCOc1ccc(NC(=O)Cn2c(=O)n(CC3CCCO3)c(=O)c3ccccc32)cc1 (stereo not drawn),"inconclusive: 15.8 µM [cytotoxic, partial curve, poor fit]"
3,NCC(=O)N1CCCC2(Cc3ccccc3CN2C(=O)Cc2cccc(Cl)c2)C1 (stereo not drawn),"inconclusive: 14.1 µM [cytotoxic, partial curve]"
4,CC(C)(C)c1ccnc(N[C@H]2CO[C@H]3[C@@H]2OC[C@@H]3NC(=O)NCc2ccccc2)n1,"inconclusive: 22.4 µM [cytotoxic, partial curve, poor fit]"
5,c1csc(CN2CCC(Oc3ccccc3-c3nc(-c4cnccn4)no3)C2)c1 (stereo not drawn),"inconclusive: 35.5 µM [cytotoxic, single point]"
6,CCOc1cc(C(=O)NC2CCN(c3cc(-c4ccc(OC)cc4)[nH]n3)C2)cc(OCC)c1OCC (stereo not drawn),inactive
7,CCOc1ccc(CNCc2c(C(=O)O)n(Cc3ccc(OC)cc3)c3ccccc23)cc1,"inconclusive: 15.8 µM [cytotoxic, partial curve, poor fit]"
8,CCc1ccccc1NC(=O)CN1C(=O)COc2ccc(S(=O)(=O)Nc3ccccc3)cc21,"inconclusive: 20 µM [cytotoxic, partial curve, poor fit]"
9,Cc1cc(C(=O)N2C[C@@H](COCC3CC3)[C@H](c3ccncc3)C2)c(C)o1,"inconclusive: 0.708 µM [cytotoxic, full curve, poor fit]"
10,[N-]=[N+]=Nc1ccc(C(=O)CSC[C@H](NC(=O)CC[C@H](N)C(=O)O)C(=O)NCC(=O)O)cc1,"inconclusive: 15.8 µM [cytotoxic, partial curve, poor fit]"
11,CC(C)CCN1CCC(N2CCN(C(=O)c3ccc(C(F)(F)F)cc3)CC2)C1=O (stereo not drawn),"inconclusive: 1.78 µM [cytotoxic, full curve, poor fit]"
12,CN(C)c1cccc(C(=O)NC2CCN(c3cc(-c4ccccc4)[nH]n3)CC2)c1,inactive
13,O=C(c1cc(-c2cccc(C(F)(F)F)c2)c2cccn2n1)N1CCOCC1,inactive
14,COc1ccc(Cl)cc1NC(=O)Cn1c(=O)n(CCCC(=O)NCCc2ccc(OC)c(OC)c2)c(=O)c2ccccc21,"inconclusive: 2 µM [cytotoxic, full curve, poor fit]"
15,Cc1cc(C)cc(Nc2ncnc3onc(-c4ccc(F)cc4)c23)c1,"inconclusive: 2.82 µM [cytotoxic, full curve]"
16,COc1ccc(-c2nnc(Nc3ccc(OC)c(C(N)=O)c3)c3ccccc23)cc1,"inconclusive: 39.8 µM [cytotoxic, single point]"
17,CCOc1ccccc1NC(=O)C(=O)c1cc(C)n(-c2ccc(F)cc2)c1C,"inconclusive: 7.08 µM [cytotoxic, single point]"
18,O=C(c1ccc(Cl)cc1)N1CC(c2nnc(-c3ccncc3)o2)C2(CCOCC2)C1 (stereo not drawn),"inconclusive: 5.01 µM [rising, partial curve, poor fit]"
19,Cc1ccc(-c2cccc(CN3CCCC(NC(=O)c4ccncc4)C3)c2)cc1Cl (stereo not drawn),inactive
